# The full ranking holds about 2,900 compounds; the median of “NF-kB SEAP reporter activity, fold change vs agonist alone” is about 0.99, and the highest 2% start at about 2.6. The list shows a part of the results.
# Tests used:
# RAW-Dual [1] = experiment: NF-kB SEAP reporter activity, fold change vs agonist alone; cytotoxicity flag (confluency mask): not cytotoxic; higher = enhanced NF-kB activity
# Summary of the method: (§1)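 Supernatant from RAW-Dual macrophages was read after 20 hours for IRF by QuantiLuc luminescence and for NF-κB by QuantiBlue absorbance at 620 nm. The cells (50,000 cells/well in DMEM, 384-well plates, 37 °C, 5% CO2) had received 50 nL of library stock by pin tool and, 1 h later, a PRR agonist. Reporter activity is expressed relative to agonist-alone wells as fold change, and wells were flagged cytotoxic if IncuCyte confluency was under 70% of agonist controls in both mask sets.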
# RAW-Dual [2] = experiment: NF-kB SEAP reporter activity, fold change vs agonist alone; higher = enhanced NF-kB activity; conditions: library stock concentration (final ~1000-fold dilution): 10 mM
# Summary of the method: as §1
# RAW-Dual [3] = experiment: NF-kB SEAP reporter activity, fold change vs agonist alone; cytotoxicity flag (confluency mask): cytotoxic (confluency <70% of control); higher = enhanced NF-kB activity
# Summary of the method: as §1
# [4] = agonist: ODN 1826 (TLR9) 0.5 ug/mL
# [5] = agonist: Pam2CSK4 (TLR2/6) 0.1 ug/mL
# [6] = agonist: Pam3CSK4 (TLR2/1) 0.1 ug/mL
# [7] = cytotoxicity flag (confluency mask): not cytotoxic, agonist: Imiquimod (TLR7) […]
# [8] = cytotoxicity flag (confluency mask): not cytotoxic, agonist: MPLA (TLR4) […]
# [9] = cytotoxicity flag (confluency mask): cytotoxic (confluency <70% of control), agonist: MPLA (TLR4) […]
# [10] = cytotoxicity flag (confluency mask): cytotoxic (confluency <70% of control), agonist: Imiquimod (TLR7) […]
smiles,measurement,setting,value
CC(=O)OC1CC2CCC3C(CCC4(C)C3CC([N+]3(C)CCCCC3)C4OC(C)=O)C2(C)CC1N1CCCCC1 (configuration not stated) (library stock concentration (final ~1000-fold dilution): 10 mM),NF-kB SEAP reporter activity,RAW-Dual [1]; agonist: LPS (TLR4) 0.1 ug/mL,1.04
same,NF-kB SEAP reporter activity,RAW-Dual [1]; [4],1.02
same,NF-kB SEAP reporter activity,RAW-Dual [1]; [5],0.945
same,NF-kB SEAP reporter activity,RAW-Dual [1]; [6],1.01
CC(=O)OC1CC2CCC3C(CCC4(C)C3CC([N+]3(C)CCCCC3)C4OC(C)=O)C2(C)CC1N1CCCCC1 (configuration not stated),NF-kB SEAP reporter activity,RAW-Dual [2]; [7],0.939
same,NF-kB SEAP reporter activity,RAW-Dual [2]; [8],0.965
C=CC(=O)N1CCN(CCCn2c(=O)c(-c3c(Cl)c(OC)cc(OC)c3Cl)cc3cnc(NC)nc32)CC1,NF-kB SEAP reporter activity,RAW-Dual [2]; [7],0.952
same,NF-kB SEAP reporter activity,RAW-Dual [2]; [8],1.23
C=CC(=O)N1CCN(CCCn2c(=O)c(-c3c(Cl)c(OC)cc(OC)c3Cl)cc3cnc(NC)nc32)CC1 (library stock concentration (final ~1000-fold dilution): 10 mM),NF-kB SEAP reporter activity,RAW-Dual [1]; agonist: LPS (TLR4) 0.1 ug/mL,3.2
same,NF-kB SEAP reporter activity,RAW-Dual [1]; [4],1.05
same,NF-kB SEAP reporter activity,RAW-Dual [1]; [5],0.933
same,NF-kB SEAP reporter activity,RAW-Dual [1]; [6],1.15
COc1cc(C2c3cc4c(cc3C(OC3OC5COC(C)OC5C(O)C3O)C3COC(=O)C23)OCO4)cc(OC)c1O (configuration not stated),NF-kB SEAP reporter activity,RAW-Dual [2]; [7],1.04
same,NF-kB SEAP reporter activity,RAW-Dual [2]; [8],1.17
COc1cc(C2c3cc4c(cc3C(OC3OC5COC(C)OC5C(O)C3O)C3COC(=O)C23)OCO4)cc(OC)c1O (configuration not stated) (library stock concentration (final ~1000-fold dilution): 10 mM),NF-kB SEAP reporter activity,RAW-Dual [1]; agonist: LPS (TLR4) 0.1 ug/mL,1.28
same,NF-kB SEAP reporter activity,RAW-Dual [1]; [4],1.1
same,NF-kB SEAP reporter activity,RAW-Dual [1]; [5],1.19
same,NF-kB SEAP reporter activity,RAW-Dual [1]; [6],0.954
CN(C)CC/C=C1/c2ccccc2Sc2ccc(Cl)cc21.Cl,NF-kB SEAP reporter activity,RAW-Dual [2]; [9],1.48
CN(C)CC/C=C1/c2ccccc2Sc2ccc(Cl)cc21.Cl (library stock concentration (final ~1000-fold dilution): 10 mM),NF-kB SEAP reporter activity,RAW-Dual [3]; agonist: LPS (TLR4) 0.1 ug/mL,1.25
same,NF-kB SEAP reporter activity,RAW-Dual [3]; [4],0.335
same,NF-kB SEAP reporter activity,RAW-Dual [3]; [5],0.745
same,NF-kB SEAP reporter activity,RAW-Dual [3]; [6],0.765
CCCSc1nc(NC2CC2c2ccc(F)c(F)c2)c2nnn(C3CC(OCCO)C(O)C3O)c2n1 (configuration not stated),NF-kB SEAP reporter activity,RAW-Dual [2]; [10],1.05
same,NF-kB SEAP reporter activity,RAW-Dual [2]; [9],0.94
CCCSc1nc(NC2CC2c2ccc(F)c(F)c2)c2nnn(C3CC(OCCO)C(O)C3O)c2n1 (configuration not stated) (library stock concentration (final ~1000-fold dilution): 10 mM),NF-kB SEAP reporter activity,RAW-Dual [3]; agonist: LPS (TLR4) 0.1 ug/mL,1.04
same,NF-kB SEAP reporter activity,RAW-Dual [3]; [4],0.615
same,NF-kB SEAP reporter activity,RAW-Dual [3]; [5],0.51
same,NF-kB SEAP reporter activity,RAW-Dual [3]; [6],0.332
CNc1ccc([N+](=O)[O-])cc1-n1cnc(-c2ccc(C(F)(F)F)cc2)c1 (library stock concentration (final ~1000-fold dilution): 10 mM),NF-kB SEAP reporter activity,RAW-Dual [1]; agonist: LPS (TLR4) 0.1 ug/mL,4.5
same,NF-kB SEAP reporter activity,RAW-Dual [1]; [4],1.91
same,NF-kB SEAP reporter activity,RAW-Dual [1]; [5],0.926
same,NF-kB SEAP reporter activity,RAW-Dual [1]; [6],1.08
CNc1ccc([N+](=O)[O-])cc1-n1cnc(-c2ccc(C(F)(F)F)cc2)c1,NF-kB SEAP reporter activity,RAW-Dual [2]; [7],1.24
same,NF-kB SEAP reporter activity,RAW-Dual [2]; [8],2.01
Cl.O=C(NC1CCNCC1)c1n[nH]cc1NC(=O)c1c(Cl)cccc1Cl,NF-kB SEAP reporter activity,RAW-Dual [2]; [10],0.646
same,NF-kB SEAP reporter activity,RAW-Dual [2]; [9],1.19
Cl.O=C(NC1CCNCC1)c1n[nH]cc1NC(=O)c1c(Cl)cccc1Cl (library stock concentration (final ~1000-fold dilution): 10 mM),NF-kB SEAP reporter activity,RAW-Dual [3]; agonist: LPS (TLR4) 0.1 ug/mL,1.2
same,NF-kB SEAP reporter activity,RAW-Dual [3]; [4],1.96
same,NF-kB SEAP reporter activity,RAW-Dual [3]; [5],0.731
same,NF-kB SEAP reporter activity,RAW-Dual [3]; [6],0.751
Cc1[nH]c(/C=C2\C(=O)Nc3ccc(S(=O)(=O)N(C)c4cccc(Cl)c4)cc32)c(C)c1C(=O)N1CCN(C)CC1,NF-kB SEAP reporter activity,RAW-Dual [2]; [7],1.01
same,NF-kB SEAP reporter activity,RAW-Dual [2]; [8],0.929
Cc1[nH]c(/C=C2\C(=O)Nc3ccc(S(=O)(=O)N(C)c4cccc(Cl)c4)cc32)c(C)c1C(=O)N1CCN(C)CC1 (library stock concentration (final ~1000-fold dilution): 10 mM),NF-kB SEAP reporter activity,RAW-Dual [1]; agonist: LPS (TLR4) 0.1 ug/mL,1.08
same,NF-kB SEAP reporter activity,RAW-Dual [1]; [4],0.594
same,NF-kB SEAP reporter activity,RAW-Dual [1]; [5],0.796
same,NF-kB SEAP reporter activity,RAW-Dual [1]; [6],0.591

# From the supplement of paper PMC10037445
